# Experimental data taken from the supplement of paper PMC8728848.
# Some of the results follow.
# Assays:
# Assay in all cases: glycan array binding signal (z-score within array); higher = stronger binding
# Conditions in all cases: glycan notation: IUPAC condensed, linker removed
# Gal3S(b1-4)GlcNAc = target: Gal3S(b1-4)GlcNAc
# In short: (§1)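 The binding signal is a Z-score computed within each array. Data were drawn from 3228 arrays in the Consortium for Functional Glycomics database, restricted to those with a known protein sequence. Scores were averaged over arrays of the same protein sequence at different concentrations or buffers, and over linkers, and negative values can be taken as non-binding.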
# Gal3S(b1-4)GlcNAc6S = target: Gal3S(b1-4)GlcNAc6S
# In short: as §1
# [1] = target: Gal3S(b1-4)[Fuc(a1-3)]Glc
# In short: as §1
# Gal3S4S(b1-4)GlcNAc = target: Gal3S4S(b1-4)GlcNAc
# In short: as §1
# Gal3S6S(b1-4)GlcNAc = target: Gal3S6S(b1-4)GlcNAc
# In short: as §1
# Gal3S6S(b1-4)GlcNAc6S = target: Gal3S6S(b1-4)GlcNAc6S
# In short: as §1
# Gal4S(b1-4)GlcNAc = target: Gal4S(b1-4)GlcNAc
# In short: as §1
# Gal4S6S(b1-4)GlcNAc = target: Gal4S6S(b1-4)GlcNAc
# In short: as §1
# Gal6S(b1-4)Glc = target: Gal6S(b1-4)Glc
# In short: as §1
# Gal6S(b1-4)Glc6S = target: Gal6S(b1-4)Glc6S
# In short: as §1
# Gal6S(b1-4)GlcNAc = target: Gal6S(b1-4)GlcNAc
# In short: as §1
# Gal6S(b1-4)GlcNAc6S = target: Gal6S(b1-4)GlcNAc6S
# In short: as §1
# GalNAc(a1-3)Gal = target: GalNAc(a1-3)Gal
# In short: as §1
# GalNAc(a1-3)GalNAc = target: GalNAc(a1-3)GalNAc
# In short: as §1
# GalNAc(b1-3)Gal = target: GalNAc(b1-3)Gal
# In short: as §1
# [2] = target: GalNAc(b1-3)Gal(a1-4)Gal(b1-4)GlcNAc
# In short: as §1
# [3] = target: GalNAc(b1-3)Gal(a1-4)Gal(b1-4)GlcNAc(b1-3)Gal(b1-4)Glc
# In short: as §1
# GalNAc(b1-3)GalNAc = target: GalNAc(b1-3)GalNAc
# In short: as §1
# GalNAc(b1-4)GlcNAc = target: GalNAc(b1-4)GlcNAc
# In short: as §1
# [4] = target: GalNAc(b1-4)GlcNAc(b1-2)Man(a1-3)[GalNAc(b1-4)GlcNAc(b1-2)Man(a1-6)]Man(b1-4)GlcNAc(b1-4)GlcNAc
# In short: as §1
# Glc(a1-4)Glc = target: Glc(a1-4)Glc
# In short: as §1
# Glc(a1-6)Glc(a1-6)Glc = target: Glc(a1-6)Glc(a1-6)Glc
# In short: as §1
# Glc(b1-4)Glc = target: Glc(b1-4)Glc
# In short: as §1
# Glc(b1-6)Glc = target: Glc(b1-6)Glc
# In short: as §1
# GlcA(b1-3)Gal = target: GlcA(b1-3)Gal
# In short: as §1
# GlcA(b1-3)GlcNAc = target: GlcA(b1-3)GlcNAc
# In short: as §1
# GlcA(b1-6)Gal = target: GlcA(b1-6)Gal
# In short: as §1
# [5] = target: GlcNAc(a1-3)Gal(b1-4)GlcNAc
# In short: as §1
# [6] = target: GlcNAc(a1-4)Gal(b1-3)GlcNAc
# In short: as §1
# [7] = target: GlcNAc(a1-4)Gal(b1-4)GalNAc
# In short: as §1
# [8] = target: GlcNAc(a1-4)Gal(b1-4)GlcNAc
# In short: as §1
# [9] = target: GlcNAc(a1-4)Gal(b1-4)GlcNAc(b1-3)Gal(b1-4)Glc
# In short: as §1
# [10] = target: GlcNAc(a1-4)Gal(b1-4)GlcNAc(b1-3)Gal(b1-4)GlcNAc
# In short: as §1
# [11] = target: GlcNAc(a1-4)Gal(b1-4)GlcNAc(b1-3)Gal(b1-4)GlcNAc(b1-3)Gal(b1-4)GlcNAc
# In short: as §1
# [12] = target: GlcNAc(a1-4)Gal(b1-4)GlcNAc(b1-3)Gal(b1-4)[Fuc(a1-3)]GlcNAc(b1-3)Gal(b1-4)[Fuc(a1-3)]GlcNAc
# In short: as §1
# [13] = target: GlcNAc(a1-6)Gal(b1-4)GlcNAc
# In short: as §1
# [14] = target: GlcNAc(b1-2)Gal(b1-3)GalNAc
# In short: as §1
# [15] = target: GlcNAc(b1-2)Man(a1-3)[GlcNAc(b1-2)Man(a1-6)]Man(b1-4)GlcNAc(b1-4)GlcNAc
# In short: as §1
# [16] = target: GlcNAc(b1-2)Man(a1-3)[GlcNAc(b1-2)Man(a1-6)]Man(b1-4)GlcNAc(b1-4)[Fuc(a1-6)]GlcNAc
# In short: as §1
# GlcNAc(b1-3)Gal = target: GlcNAc(b1-3)Gal
# In short: as §1
# [17] = target: GlcNAc(b1-3)Gal(b1-3)GalNAc
# In short: as §1
# GlcNAc(b1-3)Gal(b1-4)Glc = target: GlcNAc(b1-3)Gal(b1-4)Glc
# In short: as §1
# [18] = target: GlcNAc(b1-3)Gal(b1-4)GlcNAc
# In short: as §1
# [19] = target: GlcNAc(b1-3)Gal(b1-4)GlcNAc(b1-3)Gal(b1-4)GlcNAc
# In short: as §1
# GlcNAc(b1-3)GalNAc = target: GlcNAc(b1-3)GalNAc
# In short: as §1
binder,measurement,setting,value
"MVL (Microcystis viridis), Q9RHG4 (protein) MASYKVNIPAGPLWSNAEAQQVGPKIAAAHQGNFTGQWTTVVESAMSVVEVELQVENTGIHEFKTDVLAGPLWSNDEAQKLGPQIAASYGAEFTGQWRTIVEGVMSVIQIKYTF",glycan array binding signal (z-score),Gal3S(b1-4)GlcNAc,-0.245
same,glycan array binding signal (z-score),Gal3S(b1-4)GlcNAc6S,-0.238
same,glycan array binding signal (z-score),[1],-0.232
same,glycan array binding signal (z-score),Gal3S4S(b1-4)GlcNAc,-0.243
same,glycan array binding signal (z-score),Gal3S6S(b1-4)GlcNAc,-0.226
same,glycan array binding signal (z-score),Gal3S6S(b1-4)GlcNAc6S,-0.248
same,glycan array binding signal (z-score),Gal4S(b1-4)GlcNAc,-0.223
same,glycan array binding signal (z-score),Gal4S6S(b1-4)GlcNAc,-0.238
same,glycan array binding signal (z-score),Gal6S(b1-4)Glc,-0.237
same,glycan array binding signal (z-score),Gal6S(b1-4)Glc6S,-0.224
same,glycan array binding signal (z-score),Gal6S(b1-4)GlcNAc,-0.229
same,glycan array binding signal (z-score),Gal6S(b1-4)GlcNAc6S,-0.228
same,glycan array binding signal (z-score),GalNAc(a1-3)Gal,-0.231
same,glycan array binding signal (z-score),GalNAc(a1-3)GalNAc,-0.243
same,glycan array binding signal (z-score),GalNAc(b1-3)Gal,-0.241
same,glycan array binding signal (z-score),[2],-0.243
same,glycan array binding signal (z-score),[3],-0.245
same,glycan array binding signal (z-score),GalNAc(b1-3)GalNAc,-0.242
same,glycan array binding signal (z-score),GalNAc(b1-4)GlcNAc,-0.14
same,glycan array binding signal (z-score),[4],0.004
same,glycan array binding signal (z-score),Glc(a1-4)Glc,-0.219
same,glycan array binding signal (z-score),Glc(a1-6)Glc(a1-6)Glc,-0.228
same,glycan array binding signal (z-score),Glc(b1-4)Glc,-0.238
same,glycan array binding signal (z-score),Glc(b1-6)Glc,-0.218
same,glycan array binding signal (z-score),GlcA(b1-3)Gal,-0.233
same,glycan array binding signal (z-score),GlcA(b1-3)GlcNAc,-0.239
same,glycan array binding signal (z-score),GlcA(b1-6)Gal,-0.246
same,glycan array binding signal (z-score),[5],-0.253
same,glycan array binding signal (z-score),[6],-0.209
same,glycan array binding signal (z-score),[7],-0.182
same,glycan array binding signal (z-score),[8],-0.218
same,glycan array binding signal (z-score),[9],-0.236
same,glycan array binding signal (z-score),[10],-0.172
same,glycan array binding signal (z-score),[11],-0.228
same,glycan array binding signal (z-score),[12],0.006
same,glycan array binding signal (z-score),[13],-0.223
same,glycan array binding signal (z-score),[14],-0.243
same,glycan array binding signal (z-score),[15],1.66
same,glycan array binding signal (z-score),[16],1.05
same,glycan array binding signal (z-score),GlcNAc(b1-3)Gal,-0.241
same,glycan array binding signal (z-score),[17],-0.239
same,glycan array binding signal (z-score),GlcNAc(b1-3)Gal(b1-4)Glc,-0.231
same,glycan array binding signal (z-score),[18],-0.24
same,glycan array binding signal (z-score),[19],-0.246
same,glycan array binding signal (z-score),GlcNAc(b1-3)GalNAc,-0.231
